From PMC11045787, “Disordered clock protein interactions and charge blocks turn an hourglass into a persistent circadian oscillator” (Nature Communications, 2024)
Residue numbers refer to the chain shown, from its start. No constants are given. Whether binding was seen depends on the method and setting. In cells and extracts the contact can be indirect. Some binding calls cover weakened binding; strength is not graded here. Sequences can lack the tags named with a protein.

Assays:
[1] = target: T1, FRQ^VHF (wild-type FREQUENCY with V5-10-His-3-Flag tag) (N. crassa) (UniProt P19970); assay: co-IP; co-immunoprecipitation on VHF-tagged FRQ from lysates of N. crassa strains carrying short-ck1a^HA; overnight at 4 °C, 50 mM HEPES pH 7.4, 137 mM NaCl, 10% glycerol, 0.4% NP-40 alternative; blots with anti-FRH and anti-HA
T1 sequence: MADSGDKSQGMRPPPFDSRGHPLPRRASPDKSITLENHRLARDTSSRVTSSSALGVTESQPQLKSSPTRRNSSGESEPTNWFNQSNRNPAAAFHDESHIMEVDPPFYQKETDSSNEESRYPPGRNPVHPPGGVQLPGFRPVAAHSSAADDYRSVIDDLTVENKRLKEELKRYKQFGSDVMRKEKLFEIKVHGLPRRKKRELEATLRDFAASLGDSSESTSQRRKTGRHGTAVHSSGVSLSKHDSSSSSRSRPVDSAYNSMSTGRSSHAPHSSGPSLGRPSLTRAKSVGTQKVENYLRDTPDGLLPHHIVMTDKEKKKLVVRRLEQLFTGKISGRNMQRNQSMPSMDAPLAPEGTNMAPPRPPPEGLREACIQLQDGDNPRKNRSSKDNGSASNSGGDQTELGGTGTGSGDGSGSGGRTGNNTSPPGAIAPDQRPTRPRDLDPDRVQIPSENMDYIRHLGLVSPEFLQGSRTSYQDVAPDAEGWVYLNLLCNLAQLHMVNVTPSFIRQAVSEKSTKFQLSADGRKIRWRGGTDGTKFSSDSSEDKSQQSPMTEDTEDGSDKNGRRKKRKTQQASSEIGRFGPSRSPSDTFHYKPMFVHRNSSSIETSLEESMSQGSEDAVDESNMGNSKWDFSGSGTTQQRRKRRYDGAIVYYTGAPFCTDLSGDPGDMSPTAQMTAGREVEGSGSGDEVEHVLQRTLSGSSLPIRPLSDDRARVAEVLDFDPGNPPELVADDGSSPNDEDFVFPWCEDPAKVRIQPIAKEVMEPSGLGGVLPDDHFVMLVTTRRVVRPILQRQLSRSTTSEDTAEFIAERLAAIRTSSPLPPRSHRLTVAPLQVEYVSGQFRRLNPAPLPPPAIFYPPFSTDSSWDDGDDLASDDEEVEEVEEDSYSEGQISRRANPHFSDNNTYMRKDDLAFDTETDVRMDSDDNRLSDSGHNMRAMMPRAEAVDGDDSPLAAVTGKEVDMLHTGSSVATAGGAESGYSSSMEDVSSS

[2] = target: T2, FRQ^KKK/AAA (KKK315AAA, VHF-tagged) (N. crassa) (UniProt P19970); assay: as above
T2 sequence: T1 sequence with K315A, K316A, K317A

[3] = target: T1, FRQ^VHF (wild-type FREQUENCY with V5-10-His-3-Flag tag) (N. crassa); assay: co-IP; anti-Flag (one replicate also anti-V5) co-immunoprecipitation of VHF-tagged FRQ from N. crassa lysates; overnight at 4 °C, 50 mM HEPES pH 7.4, 137 mM NaCl, 10% glycerol, 0.4% NP-40 alternative; blot with anti-FRH
[4] = target: T3, FRQ^RR/HH (RR783HH, VHF-tagged) (N. crassa) (UniProt P19970); assay: as above
T3 sequence: T1 sequence with R783H, R784H

[5] = target: T4, FRQ^RR/AA (RR783AA, VHF-tagged) (N. crassa) (UniProt P19970); assay: as above
T4 sequence: T1 sequence with R783A, R784A

binding [1]: binds | binding [2]: binds | binding [3]: binds | binding [4]: binds | binding [5]: no binding
B1: FRQ-interacting RNA Helicase (FRH), endogenous (protein, UniProt Q1K502 1-1106)
chain: MDDLFEVFEEQPRAQKKRKASPDVEMADGAAAAAPVANAAAAVTHPQAQAAPAPQKDNIDNNDNNNNNTTTSAVQPTIPNGDAAAAADDVQSPQSPHGLGDNKRRKKTDEAEPIMTDAFQTAESREVTGAQGFAPTEGESIVLSHNIQHQVALPPDLDYEYIPLSEHKPPAEPARTYSFKLDPFQALSVASIEREESVLVSAHTSAGKTVVAEYAIAQCLKKNQRVIYTSPIKALSNQKYRDFQAEFGDVGLMTGDVTINPTASCLVMTTEILRSMLYRGSEIMREVAWVVFDEIHYMRDKIRGVVWEETIILLPDKVRYVFLSATIPNAFQFAEWIAKIHRQACHVVYTDFRPTPLQNYFFPAGGKGILLIVDEKGNFKENNFNQAMAMIEEKKGTDSNDWSAKQKGKGKNKKTNKGGEAADEKADIAKIIKMILKKNFQPVIVFNFSKRECEQMALASSSMKFNAPDEENMVNKVFENALASLSEDDKNLPQISNILPLLRKGIGVHHSGLLPILKETIEILFQEGLIKVLFATETFSIGLNMPARTVVFTQVTKWDGQQRRPLTSSEYIQMAGRAGRRGLDDRGIVIMMVDDKLEPETARAIVVGNQDKLNSAFHLGYNMVLNLLRIEAISPEYMLERCFFQFQNAASVPQLERELISLQQERDAIIIPDESIVKDYYGVRQQLEEYNKDMVFVIQHPQNCLGFFQEGRLIHIKSPSGVDYGWGVLIKHIQRQTPKNGQPPYPEQESYVLDVLLKVSGDFNPKTRGEGPMPEGIMPAGKDSKNARWEVVPCLLNCLRALGQLRVFLPKRLESADEKDGVGKAVDEISRRFPDGIPILDPMENMGINDDSFKKLLRKIEVLESRLVANPLHNSPLLVELWNQYSLKMQLGEQIKEKKKAIARAHSVAQLDELKSRKRVLRRLGFINDAEVVQMKARVACEISSTEGHELLLAELLFNRFFNELSPEICACILSCFIFDEKIETQALKEELAKPFREIQAQARIIAKVSAESKLDVNEDEYVQSLKWQLMETVLAWAQGRPFSEICKMTNVYEGSLIRLFRRLEELLRQMAEAARVMGSEELKDKFELSLSKIRRDIVSFNSLYL
